Variants at the background level are over-represented here.
B1: TPR 5TU (parent)
chain: GGAUCUUCUCGAUCUAACAAAAAAGACAAAUCUGCCACAAAGCUUGAGAGCAUCUUCGGAUGCAGAGGCGGCAGCCUUCGGUGGCGCGAUAGCGCCAACGUUCUCAACUAUGACACGCAAAACGCGUGCUCCGUUGAAUGGAGUUUAUCAUG

Variants of: B1
Experiment: polymerase ribozyme fitness, log enrichment relative to wild type (log ratio); higher = more active; in vitro selection for triplet polymerase activity
Procedure, shortened: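 Mutant libraries were PCR-built and transcribed for each subunit of a heterodimeric triplet polymerase ribozyme and selected for one round in triplicate at −7 °C, frozen, before gel excision of extended constructs and streptavidin-bead capture. Input and output libraries were Illumina-sequenced, keeping genotypes with ≥10 input reads and ≥1 read per output. Fitness is a logarithmic ratio of genotype to wild-type enrichment, in base 2, using inverse-variance-weighted replicate averages.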

Row | Variant | polymerase ribozyme fitness (log ratio)
1 | A22U U44C C96A G100A | ≤ -4.2
2 | A24C A89U C95G U111C | ≤ -4.2
3 | A23G C72U | -3.74
4 | A23U A28U C43A G88A C125G | ≤ -4.2
5 | A23U A26C G46U G84A C114A G152A | ≤ -4.2
6 | A23G C96A C103A G117C | ≤ -4.2
7 | A22U G141A | 2.05
8 | A23U A30G A41C A47G U53G U56A C75A C123G C125A | ≤ -4.2
9 | A22C G88A | ≤ -4.2
10 | A22U A30U A73U G88A C123U | ≤ -4.2
11 | A22C U45G C51G G58A G67A C118A U134C | ≤ -4.2
12 | A22C G25A U45A C51U U61C C96G U144C | ≤ -4.2
13 | A23U G83A C85A | ≤ -4.2
14 | A23U C51G C79A G84U G140A | ≤ -4.2
15 | A22G A23C U55A G128U | ≤ -4.2
16 | A22U G71U C125A | ≤ -4.2
17 | A22U A26U C129G G140U | ≤ -4.2
18 | A23U C93A A97G A113G G124U | ≤ -4.2
19 | A23U G65U G71C U102G C105A A110U G136U | ≤ -4.2
20 | A24C A37C C72U G92A A107G | ≤ -4.2
21 | A23U C72G G83U | ≤ -4.2

Row | Variant | polymerase ribozyme fitness (log ratio)
22 | A23U C38A U45G G50C U56A C93G G117A | ≤ -4.2
23 | A22C G68U G83A G117A | ≤ -4.2
24 | A23C A37C U45A C54U C76G C95U A106U C108U | ≤ -4.2
25 | A22G U55G C57U G84U C85A | -0.696
26 | A24C A30G A73U C96A | ≤ -4.2
27 | A23G A29U U61G C99U | ≤ -4.2
28 | A23U A40C U82C A89C G128U | ≤ -4.2
29 | A23C C93A C108U G143U | ≤ -4.2
30 | A22U C87U G141U | 1.15
31 | A23U U53G C95U G133A G140U | ≤ -4.2
32 | A23G U56A A66C G81A C95U | ≤ -4.2
33 | A23G G48U G65C C72U G81C G83U | ≤ -4.2
34 | A24C A39C A47G U101G C131G U135C G141A | ≤ -4.2
35 | A22C C54U G92A C116G U127C A147C C149U | ≤ -4.2
36 | A24C A28U A37U U134C | ≤ -4.2
37 | A22G C85U C95G U135G | -3.76
38 | A23U A26U A98G C105G C108U | ≤ -4.2
39 | A23C C43A G83C G86U C96U | ≤ -4.2
40 | A22U U44G U45A C75U C95G C96U G140U | ≤ -4.2
41 | A22U G126A | 1.07
42 | A22U C57U G84U G94U G128A U145C | ≤ -4.2

Row | Variant | polymerase ribozyme fitness (log ratio)
43 | A22U A89U C118U C131U C149G | ≤ -4.2
44 | A22C C36U G42C A73C C95A | ≤ -4.2
45 | A23G U56A C63A C85U C93U | ≤ -4.2
46 | A23G A47G C75G C85G A122C G128U | ≤ -4.2
47 | A23U G58C G88U G136A | ≤ -4.2
48 | A24C A37G C51A C54A G94U C132U U148C | ≤ -4.2
49 | A23G C36A C105A A107G U145A | ≤ -4.2
50 | A23C A60U G88C C93U | ≤ -4.2
51 | A23U U56G G58C G74C G88U | ≤ -4.2
52 | A23G U61G C93G G126A | ≤ -4.2
53 | A23C A28C A49C C69G G80U A97U A98C C103G A106G C132A U151A | ≤ -4.2
54 | A23C U55A U82C G136U | ≤ -4.2
55 | A22C U44A C75U G94A C131U | ≤ -4.2
56 | A24C A49G G67U G83C A106U G126U C132U | ≤ -4.2
57 | A22G G42A U61A G62A G68A A91U C132G G141A G152C | ≤ -4.2
58 | A23G U127G A137U | ≤ -4.2
59 | A22C G84A G136C C149A | ≤ -4.2
60 | A23G C57U G58A C87A A110C A113U A122U A137U | ≤ -4.2
61 | A22U C36U G74C G92A A119U A120G G126C G141U | ≤ -4.2
62 | A23C A41U G68U C93U A106G | ≤ -4.2
63 | A23U U55A C85G G124C | ≤ -4.2

Row | Variant | polymerase ribozyme fitness (log ratio)
64 | A22G U45A C63A C96U U146G | ≤ -4.2
65 | A23U A24C C27G G58A G86U C114U C123A C149A | ≤ -4.2
66 | A23U G42C C75U U82G G84U C96A | ≤ -4.2
67 | A22C G50U G67C C93G U144C | ≤ -4.2
68 | A22G U55A A89C | -0.257
69 | A23C U33A A41G U45A C87G C103G | ≤ -4.2
70 | A22U U33G A52C C54U C96G | ≤ -4.2
71 | A22U C27U C36U A98U | -3.64
72 | A22U G81A A106C G128A U139C | -3.92
73 | A23U G34U A66U G84A C103G A120U C123G | ≤ -4.2
74 | A23U A41C A49C U56A C99A C105U | ≤ -4.2
75 | A23U C36U G59A U146G | ≤ -4.2
76 | A22U A24U G58C A89U G143C | -2.7
77 | A23C G34U G59C G70C C87U G117A C131U | ≤ -4.2
78 | A22G G42C C75A A89C G92A U109A C125A | ≤ -4.2
79 | A22G A30U C36G G83C U146G | ≤ -4.2
80 | A22U U148A | -2.76
81 | A24C A30U A52G G58A G68A U82G C93U A98U G100C C125A G126U | ≤ -4.2
82 | A22U U56A G92A | -3.22
83 | A22U G58C G92U G124C | -0.925

Reference: the RNAGym collection of RNA variant scans (doi:10.1073/pnas.2313332121)
